# Laboratory results: PubChem BioAssay AID1508621 (National Center for Advancing Translational Sciences (NCATS), 2021)
# The inconclusive results got no clear call from the source; some entries with a clear call stand among them for comparison. Where the call is inconclusive, the potency comes from a doubtful curve fit. Activity calls are given as the source filed them. Calls follow the shape of the dose curve; as a rule, active = well fitted inhibition curve with a large enough effect; inconclusive = small, poorly fitted or top-dose-only effect; inactive = no such curve, though single readings can be large or run the other way.
# Assay: Confirmatory qHTS for Identification of Small Molecule Inhibitors of Huntingtin Promoter Activity; also: nearly all actives have a fitted effect of over 65% in size
# Summary of the method: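 Plated reporter HEK293 cells (24 h) received library compounds at up to 57.5 uM final or 50 uM PTC124, incubated 24 h at 37C; firefly luciferase luminescence was then recorded with Dual-Glo reagent.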
# Potency is read from the fitted curve at half-maximal effect; tags tell the direction and shape of the fitted curve.
row,Structure (SMILES),Potency
1,CCOCCCNC(=O)Nc1cc(C(=O)NCc2ccc(C(C)C)cc2)ccc1N1CCCC1,"inconclusive: 21.3 µM [inhibitor, single point]"
2,Cc1cccc(CSc2cn(CC(=O)N3CCOCC3)c3ccccc23)c1,inactive
3,COc1ccc2sc(N(Cc3cccnc3)C(=O)c3cccs3)nc2c1,"inconclusive: 12 µM [inhibitor, partial curve]"
4,CC(C)c1ccc(NC(=O)c2ccc(F)c(S(=O)(=O)N3CCc4ccccc43)c2)cc1,"inconclusive: 2.69 µM [inhibitor, full curve]"
5,O=C(c1ccc(CS(=O)c2ccccc2Cl)o1)N1CCN(c2cccc(C(F)(F)F)c2)CC1 (stereo not given),active: 3.38 µM
6,O=C(Nc1cccc(Cl)c1)c1ccc(F)c(S(=O)(=O)N2CCC3(CC2)OCCO3)c1,"inconclusive: 30.1 µM [inhibitor, single point]"
7,COc1ccc(Cn2c(CO)cnc2SCc2ccc(F)cc2)cc1,inactive
8,O=S(=O)(NCC(c1ccco1)N1CCN(c2ccc(F)cc2)CC1)c1cc(F)ccc1F (stereo not given),"inconclusive: 26.9 µM [inhibitor, partial curve]"
9,Cc1ccc(NCc2cccn2-c2nnc(N3CCC(C(=O)NCc4ccc(OC(C)C)cc4)CC3)s2)cc1,"inconclusive: 7.57 µM [inhibitor, partial curve]"
10,COc1cc(C2C(C(=O)Nc3ccccc3C)=C(C)Nc3nc(SCc4cc(C)ccc4C)nn32)ccc1O (stereo not given),"inconclusive: 37.9 µM [inhibitor, single point]"
11,COc1ccc(NS(=O)(=O)c2ccc(N3CCCCS3(=O)=O)cc2)cc1Cl,"inconclusive: 6.01 µM [inhibitor, partial curve]"
12,O=C(Nc1ccccc1)c1ccc(Cl)c(S(=O)(=O)Nc2ccccc2)c1,inactive
13,O=C(CCNS(=O)(=O)c1ccc2c(c1)CCN2C(=O)C1CC1)N1CCN(c2ccc(F)cc2)CC1,"inconclusive: 23.9 µM [inhibitor, single point]"
14,COc1cccc(NC(=O)/C(C#N)=C\c2cn(Cc3ccc(C)cc3)c3ccccc23)c1,"inconclusive: 10.7 µM [inhibitor, partial curve]"
15,Cc1cccc(-n2c(-c3ccco3)nc3c(cnn3-c3ccccc3C)c2=O)c1,"inconclusive: 6.01 µM [inhibitor, partial curve, poor fit]"
16,COc1ccc(CCNC(=O)c2ccc3c(c2)N(Cc2ccc(F)cc2)CCS3)cc1OC,"inconclusive: 26.9 µM [inhibitor, partial curve]"
17,Cc1cc(C)c(S(=O)(=O)NCCc2csc3nc(-c4ccc(Cl)cc4)nn23)c(C)c1,"inconclusive: 23.9 µM [inhibitor, partial curve]"
18,CCc1ccc(-n2nc(C)c3c(C(=O)Nc4cccc(C(F)(F)F)c4)cc(C)nc32)cc1,"inconclusive: 26.9 µM [inhibitor, single point]"
19,COc1ccc(CCNC(=O)c2c(C)nn(-c3ccc(F)cc3)c2-n2cccc2)cc1OC,"inconclusive: 10.7 µM [inhibitor, partial curve]"
20,COc1ccc(NC(=O)c2ccc(-c3nc(CSc4ccc(C)cc4)c(C)o3)cc2)cc1Cl,"inconclusive: 8.49 µM [inhibitor, partial curve]"
21,COC(=O)C1CCN(S(=O)(=O)c2ccc(N3CCCCS3(=O)=O)cc2)CC1,"inconclusive: 10.7 µM [inhibitor, partial curve]"
22,Cc1ccc(-c2onc(C)c2C)cc1S(=O)(=O)N1CCC(C)CC1,"inconclusive: 23.9 µM [inhibitor, partial curve]"
23,CCOC(=O)c1ccc(N2C(=O)c3[nH]nc(-c4ccccc4)c3C2c2cccs2)cc1 (stereo not given),active: 13.5 µM
24,O=C(c1cccs1)N(Cc1cccnc1)c1nc2c(F)cc(F)cc2s1,"inconclusive: 12 µM [inhibitor, partial curve]"
25,O=C(Nc1cc(Cl)cc(Cl)c1)c1ccc(F)c(S(=O)(=O)N2CCc3ccccc32)c1,"inconclusive: 30.1 µM [inhibitor, single point]"
26,CCOc1ccc(C(=O)Nc2ccc(-n3nncc3-c3ccc(OC)cc3)cc2)cc1,"inconclusive: 19 µM [inhibitor, partial curve]"
27,CCOc1ccc(S(=O)(=O)NCCc2csc(-c3ccc(Cl)cc3)n2)cc1,"inconclusive: 23.9 µM [inhibitor, partial curve]"
28,CCCCOc1ccc(CNC(=O)c2ccc(NC(=O)N3CCSc4ncccc43)cc2)cc1,"inconclusive: 6.01 µM [inhibitor, full curve]"
29,CC(C)c1ccc(Nc2c(-c3ccccn3)nc3ccccn23)cc1,"inconclusive: 7.57 µM [inhibitor, full curve]"
30,COc1ccc(-c2cc(C)no2)cc1S(=O)(=O)N1CCN(c2ccccc2F)CC1,"inconclusive: 16.9 µM [inhibitor, partial curve]"
